# Test results published in PubChem BioAssay AID686978 (National Center for Advancing Translational Sciences (NCATS), 2013).
# About 64,000 (15%) of roughly 420,000 compounds were called active. The inconclusive results got no clear call from the source; some entries with a clear call stand among them for comparison. Calls come from the whole dose curve; as a rule, active = well fitted inhibition curve with a large enough effect; inconclusive = small, poorly fitted or top-dose-only effect; inactive = flat fitted curve, though single readings scatter. No potency is given beside an inconclusive call; the fits are too rough.
# Test: qHTS for Inhibitors of human tyrosyl-DNA phosphodiesterase 1 (TDP1): qHTS in cells in absence of CPT; note: nearly all actives have a fitted effect of over 55% in size
# Conditions: DT40 Tdp1-/- hTDP1 cells, no CPT, ATP luminescence, 48 h; series mostly up to 46.2 µM
# Outline: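 Chicken DT40 Tdp1-/- cells complemented with human TDP1, screened without camptothecin (DMSO vehicle only), 400 cells/well. Compounds pin-transferred, cells incubated at 37 °C for at least 48 hr. Growth read as ATP-dependent luminescence (CellTiter-Glo, 30 min at RT).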
# Potency is the fitted concentration of half-maximal effect; tags give direction and shape of the fitted curve.
row,SMILES,Potency
1,CCOC(=O)N1CCC(NC(=O)CSCc2nc(-c3ccc(C)cc3)oc2C)CC1,"inconclusive [inhibitor, single point]"
2,NC(=O)c1ccc2c(=O)c(O)c(-c3cc(Cl)c(N)c(Cl)c3)[nH]c2c1,inactive
3,CCc1ccc(Nc2nc3ccccc3c3nnc(C)n23)cc1,active: 10.3 µM
4,CCCS(=O)(=O)NC(=O)C1(C)CCN1C(=O)Cc1ccc(Cl)cc1Cl (stereo not given),inactive
5,Cc1ccc(/C=N/OC(=O)c2nn(C)cc2Cl)cc1,inactive
6,CC(C)(C)Nc1nc(SCc2ccccc2)nc(N2CCOCC2)n1,"inconclusive [inhibitor, single point]"
7,COc1cc(-c2cc(=O)c3c(O)c(OC)c(OC)cc3o2)cc(OC)c1O,"inconclusive [inhibitor, partial curve, poor fit]"
8,CCOC(=O)N1CCN(CC(=O)Nc2ccc(F)c(F)c2)CC1,inactive
9,CCc1nnc(NC(=O)CSc2ncc(-c3ccccc3)n2CC)s1,inactive
10,O=C(c1ccc(S(=O)(=O)Nc2ccc(F)cc2)cc1)N1CCN(C(=O)c2ccco2)CC1,active: 11.6 µM
11,CC(C)C[C@H]1CNC(=S)N1CC1CCN(CCCC2CCCCC2)CC1,"inconclusive [inhibitor, single point]"
12,CC1=Nc2ccccc2/C1=C\c1nc(-c2ccc(C(F)(F)F)cc2)oc1O,"inconclusive [inhibitor, single point]"
13,Cc1nc(C)c(-c2csc(Nc3ccc(N)cc3)n2)s1,active: 16.4 µM
14,Cc1ccc(C(=O)N2C(=O)C(c3ccccc3)Oc3ccccc32)cc1 (stereo not given),"inconclusive [inhibitor, single point]"
15,COc1ccc(C)cc1NC(=O)C(c1ccccc1)N1CCN(CC(=O)NC2CC2)CC1 (stereo not given),"inconclusive [inhibitor, single point]"
16,CN1CCN(c2ncnc3c2[nH]c2ccc(F)cc23)CC1,"inconclusive [inhibitor, single point]"
17,CCOC(=O)c1c(NC(=O)CSc2nc3cc(Cl)ccc3c(=O)n2Cc2ccco2)sc(C(=O)N(C)C)c1C,"inconclusive [inhibitor, single point]"
18,CN(Cc1nc(-c2ccncc2)no1)S(=O)(=O)c1ccc(Cl)cc1,"inconclusive [inhibitor, single point]"
19,CCOC(=O)c1c(NC(=O)CSc2nnc(CN3CCOCC3)n2C)sc2c1CCCC2,"inconclusive [inhibitor, single point]"
20,O=C(c1ccc(F)cc1F)N1CCCN(c2nc(-c3ccccc3)ns2)CC1,"inconclusive [inhibitor, single point]"
